Experimental data: PubChem BioAssay AID1508642 (National Center for Advancing Translational Sciences (NCATS), 2021)
Among all 43,000 compounds or so, about 200 (0.47%) were called active. Roughly 12% stayed inconclusive and do not appear here. The call rests on the fitted dose curve; in most records, active means well fitted cell-killing curve with a large enough effect; inconclusive means small, poorly fitted or top-dose-only effect, or effect the other way; inactive means flat fitted curve, though single readings scatter. The list shows a part of the results.

assay: Cell viability qHTS assay in S16 Pmp22-F2sN cells; conditions: S16 Pmp22-F2sN Schwann cells (luciferase reporters placed in the Pmp22 gene) viability, CellTiter-Glo, 24 h; series mostly up to 57.5 µM; activity change, negative = cytotoxicity: at the top concentration; further: nearly all actives have a fitted effect of over 65% in size
How it was run: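 Rat S16 Schwann reporter line, 24 h treatment with library compounds delivered at 23 nL per well. Cell viability by CellTiter-Glo luminescence.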
On the % scale 0 is the no-effect control and ±100 the full control effect.

Compound | activity change, negative = cytotoxicity
CCC(C(=O)Nc1c(C)cc(C)cc1C)n1c(=O)c(-c2ccccc2NC(C)=O)nc2ccccc21 (stereo unspecified) | inactive: -2.12%
COc1ccc(NC(=O)CSc2nnc(NC(=O)Nc3ccc(OC)cc3)s2)cc1 | inactive: 11.9%
Cc1ccc(-c2noc(CNC(=O)c3ccc(Br)o3)n2)cc1 | inactive: -0.584%
Cc1ccc(NS(=O)(=O)c2c(C)[nH]c(=O)[nH]c2=O)c(C)c1 | inactive: -0.709%
COc1cccc(N2CC(NC(=O)CCCc3ccccc3)CC2=O)c1 (stereo unspecified) | inactive: -22.8%
COc1ccc(NC(=O)CC2C(=O)N(c3cccc(C)c3)C(=O)N2C2CCCCC2)cc1 (stereo unspecified) | inactive: 1.42%
CC(=O)c1cccc(NC(=O)c2cc(-c3ccc(Cl)s3)nc3ccccc23)c1 | inactive: -19.9%
COc1cccc(C(=O)Nc2ccc(-c3cc(C(F)(F)F)nn3-c3ccccc3)cc2)c1 | inactive: -12.3%
Cc1ccc(C)c(Cn2c(-c3cccs3)nc3ccccc32)c1 | inactive: 2.1%
Cc1ccc(C)c(CN2C(=O)N(c3cc(Cl)ccc3C)S(=O)(=O)c3ccccc32)c1 | inactive: -20.8%
CCOc1ccccc1CNS(=O)(=O)c1ccc2[nH]c(=O)ccc2c1 | inactive: -0.136%
CC(C)Cc1ccc(S(=O)(=O)Nc2cc3c(cc2N2CCOCC2)n(C)c(=O)c(=O)n3C)cc1 | inactive: 10.4%
CC(C)c1ccc(S(=O)(=O)c2nnn3c2nc(N2CCCCC2)c2sccc23)cc1 | inactive: 3.02%
CC(C)(C)c1ccc(S(=O)(=O)N2CCN(Cc3noc(CCC(=O)N4CCCCC4)n3)CC2)cc1 | inactive: -29.9%
COc1ccc(-c2nc(CSc3nncn4c3cc3sccc34)c(C)o2)cc1OC | inactive: 7.63%
O=C(CN1C(=O)CCc2cc(S(=O)(=O)N3CCOCC3)ccc21)NCc1ccccc1 | inactive: 1.79%
CCNc1nc(OC)nc(Oc2ccc(=O)[nH]n2)n1 | inactive: 0.598%
COc1ccc(C(=O)n2nc(-c3ccco3)nc2NCc2cccs2)cc1OC | inactive: 0.586%
CCc1ccccc1NC(=O)N(C)CCc1c(C)nn(C)c1C | inactive: 10.4%
Cc1ccc(-c2nc3sc(CCNC(=O)c4ccc(C)c(C)c4)c(C)n3n2)cc1 | inactive: 2%
Cc1cc(C)cc(S(=O)(=O)c2cn(C)c3cc(N4CCCC4)c(F)cc3c2=O)c1 | inactive: -0.445%
CCc1ccc(NC(=O)CSC2=Nc3ccccc3C3=NC(CCC(=O)NCc4ccco4)C(=O)N23)cc1 (stereo unspecified) | inactive: 12.2%
Cc1ccc(C)c(Cn2cc(S(=O)(=O)c3ccc(Cl)cc3)c(=O)c3cc(F)ccc32)c1 | inactive: 11.3%
CCN(Cc1ccccc1)C(=O)CN(c1ccc(OC)cc1)S(=O)(=O)c1c(C)nn(C)c1C | inactive: 6.84%
CCc1ccc(NC(=O)c2ccc3[nH]c(C)c(C)c3c2)cc1 | inactive: -9.02%
COc1ccc(Cl)cc1NS(=O)(=O)c1ccc2c(c1)NC(=O)CC(=O)N2 | inactive: 2.79%
